Data taken from patent US12583836B2 (Anaxis Pharma Pty Ltd, priority 2020, dated 2026).

Columns and labels:
RIP1 = target: T1, RIP1 (Homo sapiens, UniProt Q13546); test: KINOMEscan binding assay, RIP1; settings: equilibrium dissociation constant, class symbols
T1 construct: purchased DiscoverX (KINOMEscan service); host or cells: E. coli BL21-derived (T7 phage) or HEK293
T1 sequence (Q13546 1-671): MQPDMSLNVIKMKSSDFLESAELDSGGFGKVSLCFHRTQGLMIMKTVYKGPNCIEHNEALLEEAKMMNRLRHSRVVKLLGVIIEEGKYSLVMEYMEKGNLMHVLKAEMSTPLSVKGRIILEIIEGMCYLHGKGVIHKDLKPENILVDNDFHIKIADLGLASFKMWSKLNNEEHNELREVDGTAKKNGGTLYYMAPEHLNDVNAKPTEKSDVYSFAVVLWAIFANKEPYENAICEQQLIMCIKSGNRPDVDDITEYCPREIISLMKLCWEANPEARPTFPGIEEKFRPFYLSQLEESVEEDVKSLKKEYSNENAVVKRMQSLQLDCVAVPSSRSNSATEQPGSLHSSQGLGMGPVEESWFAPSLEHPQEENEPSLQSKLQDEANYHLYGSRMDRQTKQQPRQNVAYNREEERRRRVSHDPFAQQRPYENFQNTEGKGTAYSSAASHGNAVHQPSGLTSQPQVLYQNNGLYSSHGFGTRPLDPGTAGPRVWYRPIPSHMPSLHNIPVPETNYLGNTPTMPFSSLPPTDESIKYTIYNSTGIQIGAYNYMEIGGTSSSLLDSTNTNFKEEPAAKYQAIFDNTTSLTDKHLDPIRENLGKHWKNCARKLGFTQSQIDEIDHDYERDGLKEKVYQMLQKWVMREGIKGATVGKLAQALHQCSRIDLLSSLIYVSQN

RIP3 = target: T2, RIP3 (Homo sapiens, UniProt Q9Y572); test: KINOMEscan binding assay, RIP3; settings: equilibrium dissociation constant, class symbols
T2 construct: purchased DiscoverX (KINOMEscan service); host or cells: E. coli BL21-derived (T7 phage) or HEK293
T2 sequence (Q9Y572 whole entry): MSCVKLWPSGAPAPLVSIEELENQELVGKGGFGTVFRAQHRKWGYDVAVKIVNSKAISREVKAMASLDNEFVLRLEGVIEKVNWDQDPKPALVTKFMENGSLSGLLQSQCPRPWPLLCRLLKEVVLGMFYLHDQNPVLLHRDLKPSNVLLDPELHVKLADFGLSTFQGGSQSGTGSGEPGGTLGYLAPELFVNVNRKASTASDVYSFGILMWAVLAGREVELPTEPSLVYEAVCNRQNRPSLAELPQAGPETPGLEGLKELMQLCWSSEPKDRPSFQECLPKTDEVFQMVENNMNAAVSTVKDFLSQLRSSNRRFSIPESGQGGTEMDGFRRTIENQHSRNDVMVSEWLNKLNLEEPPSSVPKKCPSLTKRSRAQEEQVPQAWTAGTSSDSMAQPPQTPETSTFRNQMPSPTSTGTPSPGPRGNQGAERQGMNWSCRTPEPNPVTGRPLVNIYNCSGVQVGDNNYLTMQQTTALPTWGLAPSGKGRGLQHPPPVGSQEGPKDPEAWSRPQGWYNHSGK
Source text: The Hill Slope was set to −1.

Compound	Kd (RIP1)	Kd (RIP3)
NC(=O)c1c(-c2ccc(NS(=O)(=O)Cc3ccc(Cl)c(Cl)c3)cc2)n[nH]c1Nc1cccc(C(F)(F)F)n1 [Compound 56, 3-(4-((3,4-dichlorophenyl)methylsulfonamido)phenyl)-5-((6-(trifluoromethyl)pyridin-2-yl)amino)-1H-pyrazole-4-carboxamide]	> 30 µM	1 to 30 µM
NC(=O)c1c(-c2ccc(NS(=O)(=O)Cc3cccc(Cl)c3)cc2)n[nH]c1Nc1cccc(C(F)(F)F)n1 [Compound 59, 3-(4-(((3-chlorophenyl)methyl)sulfonamido)phenyl)-5-((6-(trifluoromethyl)pyridin-2-yl)amino)-1H-pyrazole-4-carboxamide]	> 30 µM	1 to 30 µM
NC(=O)c1c(-c2ccc(NS(=O)(=O)Cc3ccc(Cl)cc3)cc2)n[nH]c1Nc1cnccn1 [Compound 70, 3-(4-(((4-chlorophenyl)methyl)sulfonamido)phenyl)-5-(pyrazin-2-ylamino)-1H-pyrazole-4-carboxamide]	> 30 µM	> 30 µM
NC(=O)c1c(-c2ccc(NS(=O)(=O)C3CCCCC3)cc2)n[nH]c1Nc1cnccn1 [Compound 74, 3-(4-(cyclohexanesulfonamido)phenyl)-5-(pyrazin-2-ylamino)-1H-pyrazole-4-carboxamide]	> 30 µM	1 to 30 µM
NC(=O)c1c(-c2ccc(NS(=O)(=O)Cc3ccc(OC(F)(F)F)cc3)cc2)n[nH]c1Nc1cnccn1 [Compound 80, 5-(pyrazin-2-ylamino)-3-(4-(((4-(trifluoromethoxy)phenyl)methyl)sulfonamido)phenyl)-1H-pyrazole-4-carboxamide]	> 30 µM	> 30 µM
NC(=O)c1c(-c2ccc(NS(=O)(=O)Cc3cccc(C(F)(F)F)c3)cc2)n[nH]c1Nc1cnccn1 [Compound 83, 5-[(pyrazin-2-yl)amino]-3-(4-{[3-(trifluoromethyl)phenyl]methanesulfonamido}phenyl)-1H-pyrazole-4-carboxamide]	> 30 µM	> 30 µM

Now from value to compound:

Kd (RIP1)	Kd (RIP3)	Compound
> 30 µM	> 30 µM	CCS(=O)(=O)Nc1ccc(-c2n[nH]c(Nc3cnc4cc(Cl)ccc4n3)c2C(N)=O)cc1 [Compound 65, 5-((6-chloroquinoxalin-2-yl)amino)-3-(4-(ethylsulfonamido)phenyl)-1H-pyrazole-4-carboxamide]
> 30 µM	1 to 30 µM	NC(=O)c1c(-c2ccc(NS(=O)(=O)Cc3ccccc3)cc2)n[nH]c1Nc1cnccn1 [Compound 77, 3-(4-((phenylmethyl)sulfonamido)phenyl)-5-(pyrazin-2-ylamino)-1H-pyrazole-4-carboxamide]
1 to 30 µM	1 to 30 µM	CCS(=O)(=O)Nc1ccc(-c2n[nH]c(Nc3ccc4ccccc4n3)c2C(N)=O)cc1 [Compound 89, 3-(4-(ethylsulfonamido)phenyl)-5-(quinolin-2-ylamino)-1H-pyrazole-4-carboxamide]
> 30 µM	1 to 30 µM	CCOc1cccc(Nc2[nH]nc(-c3ccc(NS(=O)(=O)CC)cc3)c2C(N)=O)n1 [Compound 96, 5-((6-ethoxypyridin-2yl)amino)-3-(4-(ethylsulfonamido)phenyl)-1H-pyrazole-4-carboxamide]
> 30 µM	> 30 µM	CCS(=O)(=O)Nc1ccc(-c2n[nH]c(Nc3cnn(C)c3)c2C(N)=O)cc1 [Compound 100, 3-(4-(ethylsulfonamido)phenyl)-5-((1-methyl-1H-pyrazol-4-yl)amino)-1H-pyrazole-4-carboxamide]
> 30 µM	> 30 µM	CCOc1cc(Nc2[nH]nc(-c3ccc(NS(=O)(=O)CC)cc3)c2C(N)=O)ccn1 [Compound 105, 5-((2-ethoxypyridin-4-yl)amino)-3-(4-(ethylsulfonamido)phenyl)-1H-pyrazole-4-carboxamide]
> 30 µM	1 to 30 µM	C#CCS(=O)(=O)Nc1ccc(-c2n[nH]c(Nc3ccnc(OCCOC)c3)c2C(N)=O)cc1 [Compound 109, 5-((2-(2-methoxyethoxy)pyridin-4-yl)amino)-3-(4-(prop-2-yn-1-ylsulfonamido)phenyl)-1H-pyrazole-4-carboxamide]
